Results published in PubChem BioAssay AID504332 (National Center for Advancing Translational Sciences (NCATS), 2011).
“And” between values parts separate entries of the source, which are not always exact repeats. Identical values can stand only once. Out of some 350,000 compounds screened, about 31,000 (8.9%) were called active. This list was built around the results that the source calls inconclusive (neither active nor inactive); the mix of calls is not that of the screen. Calls come from the whole dose curve; as a rule, active = well fitted inhibition curve with a large enough effect; inconclusive = small, poorly fitted or top-dose-only effect; inactive = no such curve, though single readings can be large or run the other way. Where the call is inconclusive, the potency comes from a doubtful curve fit.

Target: Histone-lysine N-methyltransferase EHMT2 (Homo sapiens) (UniProt Q96KQ7)
Assay: qHTS Assay for Inhibitors of Histone Lysine Methyltransferase G9a; note: nearly all actives have a fitted effect of over 75% in size
Conditions: G9a H3K9 monomethylation, AlphaScreen, 2 h; activity, negative = inhibition: at 59 µM (top of the series) unless noted
How it was run: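 Chemiluminescent proximity detection of H3K9 monomethylation, read after 10 min bead incubation in the dark. Reaction: 20 nM G9a, 500 nM biotin-H3K9 peptide, 20 uM SAM cofactor, 2 h, room temperature, following 15 min enzyme-compound preincubation.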
% is set by controls: 0 for no effect and ±100 for the full control effect; potency is the fitted concentration of half-maximal effect; tags give direction and shape of the fitted curve.

Chain of UniProt Q96KQ7 (Q96KQ7 whole entry, looked up): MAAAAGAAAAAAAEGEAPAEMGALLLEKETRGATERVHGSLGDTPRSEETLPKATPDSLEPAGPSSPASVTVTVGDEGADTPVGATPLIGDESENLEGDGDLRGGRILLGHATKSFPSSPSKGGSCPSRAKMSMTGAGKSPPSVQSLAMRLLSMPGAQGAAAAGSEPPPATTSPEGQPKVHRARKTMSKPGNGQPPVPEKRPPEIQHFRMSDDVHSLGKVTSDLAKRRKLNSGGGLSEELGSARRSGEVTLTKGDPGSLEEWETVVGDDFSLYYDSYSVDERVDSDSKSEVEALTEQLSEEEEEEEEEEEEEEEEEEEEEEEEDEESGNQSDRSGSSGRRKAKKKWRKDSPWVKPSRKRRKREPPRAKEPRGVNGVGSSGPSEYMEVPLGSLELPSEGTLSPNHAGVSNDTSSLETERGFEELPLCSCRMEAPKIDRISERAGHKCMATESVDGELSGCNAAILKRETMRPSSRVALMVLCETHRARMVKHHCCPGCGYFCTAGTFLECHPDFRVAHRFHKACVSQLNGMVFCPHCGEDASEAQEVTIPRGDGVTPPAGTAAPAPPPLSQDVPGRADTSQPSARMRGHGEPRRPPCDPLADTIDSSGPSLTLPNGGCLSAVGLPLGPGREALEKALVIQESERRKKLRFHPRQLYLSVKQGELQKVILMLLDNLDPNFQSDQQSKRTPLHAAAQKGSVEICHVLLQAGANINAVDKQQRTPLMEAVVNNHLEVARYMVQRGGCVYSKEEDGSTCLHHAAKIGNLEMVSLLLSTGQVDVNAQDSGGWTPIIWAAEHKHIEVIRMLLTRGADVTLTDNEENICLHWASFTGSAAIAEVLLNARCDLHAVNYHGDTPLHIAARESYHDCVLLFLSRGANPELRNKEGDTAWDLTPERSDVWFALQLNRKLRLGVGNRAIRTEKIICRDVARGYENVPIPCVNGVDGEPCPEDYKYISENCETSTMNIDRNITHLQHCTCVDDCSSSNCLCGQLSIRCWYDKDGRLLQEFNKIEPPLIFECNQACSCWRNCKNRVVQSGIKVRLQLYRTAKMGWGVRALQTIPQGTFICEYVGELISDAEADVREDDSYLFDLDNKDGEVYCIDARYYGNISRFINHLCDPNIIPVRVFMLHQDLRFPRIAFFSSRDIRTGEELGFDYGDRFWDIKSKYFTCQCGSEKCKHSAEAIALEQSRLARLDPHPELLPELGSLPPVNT

How did the Potency turn out when `O=c1[nH]c2ccccc2nc1C(Cl)c1ccccc1` (stereo unspecified) was run?
The Potency was inconclusive: 1 µM [inhibitor, partial curve, poor fit].

How did the activity, negative = inhibition turn out when `O=C1Oc2ccccc2C(=O)/C1=C/c1ccccc1O` was run?
The activity, negative = inhibition was inconclusive: -75.1% [inhibitor].

How did the Potency turn out when `COc1ccc(CCNC(=O)Cn2c(=O)n(Cc3ccco3)c(=O)c3ccc(Cl)cc32)cc1OC` was run?
Its Potency is inconclusive: 8.91 µM [inhibitor, partial curve, poor fit].

How did the Potency turn out when `CN1CCC(OC(c2ccccc2)c2ccccc2)CC1` was run?
The Potency was “inactive”.

How did the Potency turn out when `Cc1nn(C)c(Cl)c1C(=O)NCC(=O)O` was run?
The Potency was inconclusive: 56.2 µM [inhibitor, partial curve, poor fit].

With `CCCSc1nnc(NC(=O)c2sc3nc(-c4cccs4)ccc3c2N)s1` as the compound, how does the activity, negative = inhibition read?
Its activity, negative = inhibition is inactive: 16.2% [at 12.7 µM].

`Brc1ccc2nc(-c3c[nH]c4ccccc34)cn2c1` was tested. Which Potency did it give?
Its Potency is active: 50.1 µM.

For `CCOC(=O)C1CCN(C(=O)c2cccnc2)CC1`, which Potency is on record?
Its Potency is inconclusive: 79.4 µM [inhibitor, single point].

Which Potency does the source give for `COc1ccc(CNC(=O)C(C)OC(=O)Cn2cnc3c2c(=O)n(C)c(=O)n3C)cc1` (stereo unspecified) here?
The Potency was inconclusive: 10 µM [inhibitor, partial curve, poor fit].

How did the “activity, negative = inhibition” value turn out when `CCc1ccc(C(CNc2nc(C(F)(F)F)nc3ccccc23)N(C)C)cc1` (stereo unspecified) was run?
Its value is inactive: 4.66% [at 102 µM].

How did the activity, negative = inhibition turn out when `COc1cccc(Cn2c(=O)c(CCc3ccccc3)nc3cnc(N4CCOCC4)nc32)c1` was run?
The activity, negative = inhibition was inactive: -9.6% [at 0.501 µM].

How did the Potency turn out when `CCCCSc1nnc(-c2ccc(OC)cc2)n1C` was run?
The Potency was inconclusive: 6.31 µM [inhibitor, single point].

How did the Potency turn out when `CCc1ccc(OCC(=O)Nc2ccc(S(=O)(=O)N3CCOCC3)cc2)cc1` was run?
The Potency was inconclusive: 4.47 µM [inhibitor, full curve, poor fit].

How did the “activity, negative = inhibition” value turn out when `CCOc1cc(N2CCOCC2)c(OCC)cc1NC(=O)CN1C(=O)C2C3C=CC(C3)C2C1=O` (stereo unspecified) was run?
The value was inactive: -3.31% [at 102 µM].

With `Cc1ccc(S(=O)(=O)Nc2cccc(-c3cn4cccc(C)c4n3)c2)c(C)c1` as the compound, how does the Potency read?
Its Potency is inconclusive: 28.2 µM [inhibitor, partial curve, poor fit].

With `COc1ccccc1N1CCN(C(=O)c2ccc3c(c2)NC(=O)C(CSCc2ccccc2C)N3)CC1` (stereo unspecified) as the compound, how does the Potency read?
Its Potency is inconclusive: 25.1 µM [inhibitor, single point].

For `O=C(Cn1c(SCc2ccccc2F)nc2ccncc21)Nc1ccccc1C(F)(F)F`, which “activity, negative = inhibition” value is on record?
The value was inactive: -9.48%.

Which “activity, negative = inhibition” value does the source give for `O=C(Nc1ccsc1C(=O)O)c1cccc(C(F)(F)F)c1` here?
The value was inactive: -20.1% [at 102 µM].

`O=C(N1CCOCC1)N1CCN(S(=O)(=O)c2ccc(F)cc2)CC1` was tested. Which Potency did it give?
The Potency was inconclusive: 89.1 µM [inhibitor, single point].

For `Cc1ccc2c(c1)C(N1CCN(C)CC1)=Nc1cccnc1N2`, which Potency is on record?
Its Potency is inconclusive: 56.2 µM [inhibitor, partial curve] and inconclusive: 23.8 µM [inhibitor, single point].

With `CC(=O)Nc1c(C(N)=O)oc2ccc(Cl)cc12` as the compound, how does the “activity, negative = inhibition” value read?
Its value is inactive: -4.12% [at 102 µM].

With `C=CCNC(=S)NNC(=O)c1cccn(Cc2ccc(Cl)cc2Cl)c1=O` as the compound, how does the Potency read?
Its Potency is inconclusive: 14.1 µM [inhibitor, partial curve].

With `CCCCC(=O)Nc1ccc2c(c1)nc(CN1CCN(C(=O)OCC)CC1)n2C` as the compound, how does the “activity, negative = inhibition” value read?
The value was inactive: -23.5% [at 102 µM].

How did the activity, negative = inhibition turn out when `Cc1csc(NC(=O)CCS(=O)(=O)c2ccc(Br)cc2)n1` was run?
The activity, negative = inhibition was inconclusive: -67.8% [inhibitor].

Which “activity, negative = inhibition” value does the source give for `Brc1ccc(-c2nnc(-c3ccccc3Br)o2)cc1` here?
The value was inactive: 57.4% [at 102 µM].

For `N#C/C(=C/c1ccc(O)c(O)c1)c1nc2ccccc2[nH]1`, which Potency is on record?
The Potency was active: 11.2 µM.

For `Cc1ccsc1CN1CCc2nc(Nc3ccccc3)ncc2C1`, which “activity, negative = inhibition” value is on record?
Its value is inactive: -45.5%.

For `CCOC(=O)c1c(NC(=O)C2CC2)sc(C)c1CC`, which Potency is on record?
Its Potency is inconclusive: 28.2 µM [inhibitor, single point].

For `Cc1cc(C(=O)NCc2ccco2)c2cc(F)ccc2n1`, which “activity, negative = inhibition” value is on record?
The value was inactive: -23% [at 102 µM].

`CCC(C)(C)NC(=O)c1sccc1Oc1ccc(F)cc1[N+](=O)[O-]` was tested. Which Potency did it give?
Its Potency is inconclusive: 50.1 µM [inhibitor, partial curve].

`NNC(=O)CSc1nc(-c2ccccc2)nc2c1CCCC2` was tested. Which Potency did it give?
The Potency was inconclusive: 1.58 µM [inhibitor, partial curve, poor fit].

`O=C(Cn1ccc2cc(S(=O)(=O)N3CCCCC3)ccc21)NCCc1ccccc1Cl` was tested. Which “activity, negative = inhibition” value did it give?
The value was inactive: 6.77%.

`COc1ccc(-c2cc(=O)oc3cc(OC(C)C(=O)NC4CC4)ccc23)cc1` (stereo unspecified) was tested. Which “activity, negative = inhibition” value did it give?
The value was inactive: -4.2% [at 102 µM].

How did the Potency turn out when `CCc1ccc(NC(=O)CSC2=Nc3ccccc3C3=NC(CCC(=O)NCc4ccccc4)C(=O)N23)cc1` (stereo unspecified) was run?
The Potency was inconclusive: 0.631 µM [inhibitor, full curve, poor fit].

For `O=C(Nc1ccc(N2CCN(C(=O)c3ccccc3)CC2)c(Cl)c1)c1ccc(Br)o1`, which Potency is on record?
The Potency was active: 44.7 µM.

How did the Potency turn out when `O=[N+]([O-])c1ccc(CN2CCCCCC2)cc1` was run?
The Potency was inconclusive: 89.1 µM [inhibitor, single point].

Which Potency does the source give for `CCc1cccc(CC)c1NC(=O)CN1CCN(S(=O)(=O)c2ccccc2)CC1` here?
Its Potency is active: 44.7 µM.

With `CCCc1cc(=O)[nH]c2nnc(SCC(=O)NC3CCCC3)n12` as the compound, how does the Potency read?
Its Potency is active: 17.8 µM.

For `CC1CC(C)CN(S(=O)(=O)c2cccc(C(=O)N3C(=O)c4cccc(N)c4C3=O)c2)C1` (stereo unspecified), which Potency is on record?
Its Potency is inconclusive: 22.4 µM [inhibitor, partial curve, poor fit].

How did the “activity, negative = inhibition” value turn out when `COc1ccc(CNC(=O)CNC(=O)c2sc3ccccc3c2Cl)cc1OC` was run?
The value was inactive: -4.28% [at 102 µM].

`O=C(c1cnn(-c2ccc(F)cc2)c1-n1cccc1)N1CCN(c2ccc(F)cc2)CC1` was tested. Which Potency did it give?
Its Potency is inconclusive: 3.55 µM [inhibitor, partial curve, poor fit].

How did the Potency turn out when `Cc1ccc(NC(=O)c2ccc(Cl)c(S(=O)(=O)Nc3c(C)n(C)n(-c4ccccc4)c3=O)c2)cc1Cl` was run?
The Potency was inconclusive: 79.4 µM [inhibitor, partial curve, poor fit].

Which activity, negative = inhibition does the source give for `Cc1cc(=O)n(Cc2ccccc2)c(O)c1C#N` here?
The activity, negative = inhibition was inactive: 6.13% [at 0.501 µM].

`COC(=O)c1c(CSc2ccc(C)c(C)c2)noc1C(=O)NCc1ccc(OC)cc1` was tested. Which “activity, negative = inhibition” value did it give?
Its value is inactive: 16.2%.

How did the Potency turn out when `Cc1cccc(NC(=O)CSc2nc(-c3ccccc3)c(C#N)c(=O)[nH]2)c1C` was run?
Its Potency is inconclusive: 89.1 µM [inhibitor, single point].

For `COc1ccccc1N1CC(C(=O)OCC(=O)c2ccc(F)cc2)CC1=O` (stereo unspecified), which Potency is on record?
Its Potency is inconclusive: 1.78 µM [inhibitor, partial curve, poor fit].
